{"source": "PubChem BioAssay AID686979", "about": "(National Center for Advancing Translational Sciences (NCATS), 2013)", "note": "“And” between values parts separate entries of the source, which are not always exact repeats. Equal values may be shown once. About 50,000 (12%) of roughly 420,000 compounds were called active. The inconclusive results got no clear call from the source; some entries with a clear call stand among them for comparison. Calls come from the whole dose curve; as a rule, active = well fitted inhibition curve with a large enough effect; inconclusive = small, poorly fitted or top-dose-only effect; inactive = flat fitted curve, though single readings scatter. Potencies of inconclusive entries are left out as doubtful fits. % is set by controls: 0 for no effect and ±100 for the full control effect; potency is the fitted concentration of half-maximal effect; tags give direction and shape of the fitted curve."}
{"experiment": "qHTS for Inhibitors of human tyrosyl-DNA phosphodiesterase 1 (TDP1): qHTS in cells in presence of CPT; note: nearly all actives have a fitted effect of over 55% in size", "details": "chicken DT40 Tdp1-/-;hTDP1 cells + 20 nM CPT, ATP luminescence, 48 h; activity change, negative = growth inhibition: at 46.2 µM (top of the series) unless noted", "how_it_was_run": "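Chicken DT40 Tdp1-/- cells stably complemented with human TDP1 were seeded at 400 cells/well in medium containing 20 nM camptothecin, exposed to pin-transferred compounds, and grown at 37 °C for at least 48 hr. Viability was read as ATP luminescence.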"}
{"compound": "Clc1ccc(OCCCN2CCCCC2)c(Br)c1", "Potency": "inconclusive [inhibitor, single point]"}
{"compound": "COc1cccc(OCC(=O)N2CCCc3ccccc32)c1", "Potency": "inconclusive [inhibitor, single point]"}
{"compound": "O=C(NC1CC(=O)N(c2cccc(F)c2)C1)c1ccc(S(=O)(=O)N2CCCCC2)cc1", "note": "(configuration not stated)", "activity change, negative = growth inhibition": "inactive: -18.1%"}
{"compound": "COc1ccc(Oc2ccc(C(F)(F)F)cc2NC(=O)c2ccc(C)cc2)cc1", "Potency": "inconclusive [inhibitor, single point]"}
{"compound": "NS(=O)(=O)c1ccc(NC(=O)/C=C/c2cccc(Cl)c2)cc1", "Potency": "inconclusive [inhibitor, single point]"}
{"compound": "Cc1cccc[n+]1CC(=O)Nc1ccc([N+](=O)[O-])cc1Cl", "activity change, negative = growth inhibition": "inconclusive: -23.9% [inhibitor]"}
{"compound": "CCCOC(=O)c1ccc(NC(=O)CSC2=Nc3ccccc3C3CC=NN23)cc1", "note": "(configuration not stated)", "Potency": "active: 23.1 µM"}
{"compound": "O=C(c1cccs1)N(Cc1ccco1)C1CCS(=O)(=O)C1", "note": "(configuration not stated)", "activity change, negative = growth inhibition": "inactive: 1.37%"}
{"compound": "COc1ccc(C(=O)Nc2cc(-c3nc4ncccc4o3)ccc2C)cc1Br", "Potency": "inconclusive [inhibitor, single point]"}
{"compound": "Cc1cccc(C)c1N1C(=O)CN(Cc2ccccc2)C1=S", "activity change, negative = growth inhibition": "inactive: -6.5%"}
{"compound": "COc1ccc(/C=C/C(=O)O)cc1S(=O)(=O)NCc1ccccc1", "activity change, negative = growth inhibition": "inactive: -9.59%"}
{"compound": "COc1ccc(S(=O)(=O)N2CCOCC2)cc1NC(=O)CSc1cc(C)ccc1C", "Potency": "inconclusive [inhibitor, single point]"}
{"compound": "CN(C)C1=NCCN1CCCC1CCCC1", "Potency": "inconclusive [inhibitor, single point]"}
{"compound": "CCCCNC(=O)c1onc(CSc2cccc3ccccc23)c1C(=O)O", "Potency": "inconclusive [inhibitor, single point]"}
{"compound": "Cc1noc(-c2ccc(N(C)Cc3ccccc3)c([N+](=O)[O-])c2)n1", "Potency": "active: 20.6 µM"}
{"compound": "COc1ccc(S(=O)(=O)NCc2ccc(C(=O)N3CCN(c4ccccn4)CC3)cc2)cc1", "Potency": "active: 8.91 µM"}
{"compound": "O=C(COC(=O)c1ccccc1O)Nc1cccc2ccccc12", "activity change, negative = growth inhibition": "inactive: -16.4%"}
{"compound": "Cc1ccc(O)c(C(=O)c2cnc3c(c2)c(=O)n(C)c(=O)n3C)c1", "Potency": "inconclusive [inhibitor, single point]"}
{"compound": "Cc1cccc(NC(=O)CN2C(=O)S/C(=C\\c3cc(C)n(C)c3C)C2=O)c1", "activity change, negative = growth inhibition": "inactive: -22.3%"}
{"compound": "CCCC(=O)C1=C(O)C(C(=O)OC)C(C)(C)CC1=Nc1cccc([N+](=O)[O-])c1", "note": "(configuration not stated)", "Potency": "inconclusive [inhibitor, single point]"}
{"compound": "CCCN(CCC)c1ccc(/C=C/c2ccc3cc(OCC)ccc3n2)cc1", "Potency": "inconclusive [inhibitor, single point]"}
{"compound": "O=C(CSc1n[nH]c(-c2ccccn2)n1)Nc1ccc(Cl)cc1", "Potency": "active: 6.51 µM"}
{"compound": "CN(C(=O)c1cc(Cl)c2c(c1)OCCO2)c1c(N)n(Cc2ccccc2)c(=O)[nH]c1=O", "Potency": "inconclusive [inhibitor, single point]"}
{"compound": "COCCn1c(=O)c(-c2ccc(OC)cc2)nc2cnc(N3CCNCC3)nc21", "Potency": "inconclusive [inhibitor, single point]"}
{"compound": "CN(C)c1ccc(/C=C/c2ccnc3ccccc23)cc1Br", "Potency": "active: 8.91 µM"}
{"compound": "O=C(O)/C=C\\C(=O)Nc1ccc(N2CCN(c3ccc(Cl)cc3)CC2)cc1", "activity change, negative = growth inhibition": "inactive: 29.3%"}
{"compound": "Cc1ccc(NC(=S)N(CCN(C)C)C(C)c2ccco2)c(C)c1", "note": "(configuration not stated)", "Potency": "inconclusive [inhibitor, single point]"}
{"compound": "COC(=O)c1c(NC(=O)c2ccoc2C)sc2c1CCC2", "activity change, negative = growth inhibition": "inactive: -1.2%"}
{"compound": "COc1ccc(OCc2nc(-c3ccc(OC)c(OC)c3)no2)cc1", "Potency": "active: 16.4 µM"}
{"compound": "CCn1c2ccc(F)cc2c2nnc(NN)nc21", "Potency": "inconclusive [inhibitor, single point]"}
{"compound": "O=C(NCCN1C(=O)S/C(=C\\c2ccc(Cl)c(Cl)c2)C1=O)c1cnccn1", "Potency": "inconclusive [inhibitor, partial curve]"}
{"compound": "COC(=O)C1(C(=O)OC)Cc2ccccc2N(S(=O)(=O)c2ccc(C)cc2)C1CC(C)=O", "note": "(configuration not stated)", "Potency": "inconclusive [inhibitor, partial curve]"}
{"compound": "Cc1ccc(B(O)O)cc1", "Potency": "inconclusive [inhibitor, single point]"}
{"compound": "CC(=O)Nc1c(C)nn(-c2ccccc2)c1N1CCC(C(=O)Nc2ccc(C)cc2Cl)CC1", "Potency": "inconclusive [inhibitor, single point]"}
{"compound": "CC(OC(=O)C1CCCC1)C(=O)Nc1ccc(C(N)=O)cc1", "note": "(configuration not stated)", "activity change, negative = growth inhibition": "inactive: -11%"}
{"compound": "CC(=O)c1c(C)n([O-])c2cc(F)c(F)cc2[n+]1=O", "Potency": "inconclusive [inhibitor, single point]"}
{"compound": "CCc1sc(C(=O)N2CCN(c3ncccn3)CC2)cc1Br", "Potency": "inconclusive [inhibitor, single point]"}
{"compound": "COc1cc(NC2=CC(=O)CC(C)(C)C2)cc(OC)c1", "Potency": "inconclusive [inhibitor, full curve, poor fit]"}
{"compound": "CC(=O)Nc1ccc(NC(=O)c2ccc3c(c2)CCN3S(=O)(=O)c2ccc(Cl)cc2)cc1", "Potency": "inconclusive [inhibitor, full curve]"}
{"compound": "COc1ccc(-c2cc(C(=O)N3CCN(c4cccc(C)c4C)CC3)c3ccccc3n2)cc1OC", "Potency": "inconclusive [inhibitor, single point]"}
{"compound": "CCOC(=O)C1CCCN(C(=O)c2ccc(C)c(NC(=O)c3nsc4ccccc34)c2)C1", "note": "(configuration not stated)", "Potency": "inconclusive [inhibitor, single point]"}
{"compound": "O=C(Cc1csc(NC(=O)c2ccccc2)n1)NO", "Potency": "inconclusive [inhibitor, single point]"}
{"compound": "FC(F)(F)Sc1ccc(NC(=S)NCc2ccccc2)cc1", "Potency": "inconclusive [inhibitor, single point]"}
{"compound": "C/C(=N\\NC(=O)CN1CCCCC1)c1ccccc1O", "Potency": "inconclusive [inhibitor, single point]"}
{"compound": "C1CCC(C(CC2CCCCN2)C2CCCCC2)CC1", "note": "(configuration not stated)", "Potency": "active: 2.66 µM and active: 7.31 µM and active: 10.3 µM"}
{"compound": "COc1cc(/C=N\\N=C2/SC(CC(=O)O)C(=O)N2c2ccc(O)cc2)ccc1O", "note": "(configuration not stated)", "activity change, negative = growth inhibition": "inactive: -2.37%"}
{"compound": "c1ccc(Cn2nnnc2C(c2cccnc2)N2CCN(c3ccccc3)CC2)cc1", "note": "(configuration not stated)", "Potency": "active: 20.6 µM"}
{"compound": "O=C(NCC(c1cccnc1)N1CCOCC1)c1cccc(Cl)c1", "note": "(configuration not stated)", "activity change, negative = growth inhibition": "inactive: -16%"}
{"compound": "Cc1ccc2oc(-c3cc(NC(=O)Cc4ccccc4)ccc3Cl)nc2c1", "Potency": "inconclusive [inhibitor, partial curve]"}
{"compound": "CCOC(=O)N1CCC(NC(=O)CN(c2ccc(C(C)C)cc2)S(=O)(=O)c2c(C)nn(C)c2C)CC1", "Potency": "inconclusive [inhibitor, single point]"}
{"compound": "COc1cc(C2C3=C(COC3=O)Oc3cc4c(cc32)OCO4)cc(OC)c1OC(C)=O", "note": "(configuration not stated)", "Potency": "active: 0.651 µM"}
{"compound": "O=c1c(Oc2ccccc2)coc2cc(O)cc(O)c12", "activity change, negative = growth inhibition": "inactive: -3.81%"}
{"compound": "Cc1cnc(=O)[nH]c1SCc1cccc([N+](=O)[O-])c1", "activity change, negative = growth inhibition": "inactive: 4.16%"}
{"compound": "CN(C)c1ccc(C(CNC(=O)c2ccccc2Cl)N2CCc3ccccc32)cc1", "note": "(configuration not stated)", "Potency": "inconclusive [inhibitor, single point]"}
{"compound": "C#CCNc1nc(CC)nc2c1nnn2Cc1ccccc1F", "activity change, negative = growth inhibition": "inactive: -19.8%"}
{"compound": "Cc1ccc2c(c1)[C@@H]1CN(C)CC[C@@H]1N2S(=O)(=O)c1ccc([N+](=O)[O-])cc1", "Potency": "inconclusive [inhibitor, single point]"}
{"compound": "COc1cc(/C=C/C(=O)Nc2nc3ccc(S(=O)(=O)N(C)C)cc3s2)cc(OC)c1OC", "Potency": "inconclusive [inhibitor, single point]"}
{"compound": "CC(C)CC(=O)NC(Nc1ccc([N+](=O)[O-])cc1)C(Cl)(Cl)Cl", "note": "(configuration not stated)", "Potency": "active: 18.4 µM"}
{"compound": "Cc1ccc(Nc2nc(N)nc(CN3CCN(Cc4ccccc4)CC3)n2)cc1Cl", "Potency": "inconclusive [inhibitor, single point]"}
{"compound": "CC(C)NCC(O)COc1ccc(CCOCC2CC2)cc1", "note": "(configuration not stated)", "Potency": "inconclusive [inhibitor, single point]"}
{"compound": "CCCCOc1ccc(C(=O)NCCS(=O)(=O)N2CCN(c3ccccc3OC)CC2)cc1", "Potency": "active: 5.8 µM"}
{"compound": "CC(c1ccccc1C(O)(c1ccccc1)c1ccccc1)N(C)C", "note": "(configuration not stated)", "Potency": "inconclusive [inhibitor, single point]"}
{"compound": "CCCCc1ccc(NC(=S)N2CCN(c3ccccn3)CC2)cc1", "activity change, negative = growth inhibition": "inactive: 15.3%"}
{"compound": "Cc1ccc(NC(=O)Nc2nc3c(s2)CCCCCC3)cc1C", "Potency": "active: 13 µM"}
{"compound": "O=C(Nc1cccnc1)c1ccc(CN2CCc3ccccc3C2)cc1", "Potency": "inconclusive [inhibitor, partial curve, poor fit]"}
{"compound": "Cc1cccc2c(=O)cc(C(F)(F)F)[nH]c12", "Potency": "inconclusive [inhibitor, single point]"}
{"compound": "Cc1cc(N2CCN(C(=O)Nc3ccc(F)cc3F)CC2)c2ccccc2n1", "activity change, negative = growth inhibition": "inactive: -17.6%"}
{"compound": "O=C(NC1CC1)[C@@H]1C[C@@H](Sc2nc3ccccc3[nH]2)CN1CC1CCCCC1", "activity change, negative = growth inhibition": "inactive: -3.09% [at 9.04 µM]"}
{"compound": "COc1cc(Cl)c(C)cc1NC(=O)c1ccccc1NC(=O)CN1CCOCC1", "Potency": "active: 2.59 µM"}
{"compound": "COc1ccccc1Cc1c(-c2ccc(F)cc2)nc2ccc(Cl)cn12", "Potency": "inconclusive [inhibitor, single point]"}
{"compound": "CCC1Nc2ncnc(N3CCCCC3)c2N(Cc2ccc(Br)cc2)C1=O", "note": "(configuration not stated)", "Potency": "inconclusive [inhibitor, single point]"}
{"compound": "CCNc1ncc2nc(-c3ccc(OC)cc3)c(=O)n(Cc3cccs3)c2n1", "Potency": "inconclusive [inhibitor, partial curve, poor fit]"}
